Here are results for 88 compounds from PubChem BioAssay AID463173 (ICCB-Longwood Screening Facility, Harvard Medical School, 2010).

Among all 52,000 compounds or so, about 4,300 (8.3%) were called active. Cut-off read from the data, not from the text of the source: active = survival mostly below about 52% (no sharp cut-off); inactive = mostly above about 56%. Some of the results follow.

In the experiment the test system is DeltatarO mutant. The experiment in a line: S. aureus survival, RN4220 and DeltatarO strains – OD600, teichoic acid synthesis inhibitors, primary screen (AID 463173). The conditions noted are these: S. aureus RN4220 wild type/DeltatarO growth, OD600, 18 h, active compounds read low, screened at 18.75 µg/mL (by protocol).
Regarding `Cc1ccc(OCC(=O)N(Cc2ccc(Cl)cc2)CC2CCCO2)cc1C` (stereo not drawn), the survival was inactive: 73%.

On to `O=C(Nc1ccccc1C(F)(F)F)Nc1c[nH]c(=O)[nH]c1=O`, for which the survival is inactive: 83%.

For the compound `COc1ccc(Nc2c(-c3ccco3)nc3cccc(C)n23)cc1`, the survival is inactive: 91%.

Regarding `Cc1ccc2c(C)c(C(=O)N3CCC(c4nc5ccccc5s4)CC3)oc2c1C`, the survival was inactive: 80%.

Consider `Cc1cc(C)c2oc(-c3cc(NC(=O)Cc4ccccc4)ccc3Cl)nc2c1`, for which the survival was active: 31%.

For `COc1ccc(NC(=O)C2=C(C)Nc3c(C(=O)Nc4ccc(C)cc4)cnn3C2c2cc(OC)ccc2OC)cc1` (stereo not drawn), the survival was inactive: 87%.

Take `COc1cccc(NC(=O)Cn2c(=O)n(Cc3ccccc3)c(=O)c3c2c2cc(C)ccc2n3C)c1`: the survival was inactive: 89%.

As to `CN(C)c1ccc(C2CC(c3c(O)n(C4CCCCC4)c(=O)[nH]c3=O)=Nc3ccccc3S2)cc1` (stereo not drawn), the survival was inactive: 52%.

Regarding `CCCN1CCc2nc(SCC(=O)Nc3ccc(C)c(Cl)c3)[nH]c(=O)c2C1`, the survival was inactive: 97%.

With `N#Cc1c(N)n[nH]c1-c1cc2c([nH]1)CCCC2`, the survival is inactive: 96%.

For the compound `Cc1cc(N2CCN(c3cccc(C(F)(F)F)c3)CC2)n2nc(-c3ccccc3C)nc2n1`, the survival is active: 2%.

Regarding `CCCOc1ccc(C2C(=O)N(C3CCCCCC3)CC(=O)N2Cc2ccc(OC)cc2)cc1OC` (stereo not drawn), the survival is inactive: 72%.

For the compound `CCN(CC)S(=O)(=O)c1ccc2c(c1)N(CC(=O)NCc1ccc(F)cc1)C(=O)CO2`, the survival is inactive: 75%.

`CCC(C)NC(=O)CSc1nc2c(sc3ccccc32)c(=O)n1CCc1ccccc1` (stereo not drawn): the survival was inactive: 94%.

With `O=S(=O)(c1cccc(C(F)(F)F)c1)N1CCC(Oc2ccc(-n3cnnn3)cc2)CC1`, the survival is inactive: 73%.

`Cc1ccc2oc(=O)c3cnn(CC(=O)N4CCN(c5cccc(C(F)(F)F)c5)CC4)c3c2c1`: the survival was inactive: 87%.

For `CC(C)=CCCC1=CCC2C(=O)NNC(=O)C2C1` (stereo not drawn), the survival is inactive: 87%.

As to `O=c1[nH]c2ccc(NCc3ccc(-c4ccccc4F)o3)cc2[nH]1`, the survival is inactive: 81%.

Take `Cc1ccc(C(C)C)c(OCC(=O)Nc2cccc(-c3nc4ncccc4o3)c2)c1`: the survival is active: 2%.

Take `CCOc1ccc(NC(=O)N(Cc2ccc(CC)cc2)Cc2cn[nH]c2-c2ccc(OC)cc2)cc1`: the survival was inactive: 58%.

Take `COc1cccc(Oc2nc3c(c(=O)n(Cc4ccccc4Cl)c(=O)n3C)n2C)c1`: the survival is inactive: 73%.

As to `CCOc1ccc(-c2cc3c(=O)n(Cc4nc(-c5ccc(OC)cc5OC)oc4C)ccn3n2)cc1Cl`, the survival was inactive: 184%.

In the case of `c1ccc(CSc2nnc(C3CCNCC3)o2)cc1`, the survival was inactive: 91%.

Consider `COC(=O)c1ccc(NC(=O)CCn2cccn2)cc1`, for which the survival is inactive: 76%.

Regarding `CC(=O)Nc1nc2ccccc2n1Cc1ccc(C)cc1`, the survival is inactive: 87%.

For the compound `Cc1cc2c(cc(C(=O)OC(C(=O)NCC3CCCO3)C(C)C)n2C)o1` (stereo not drawn), the survival is inactive: 84%.

Take `C1=CCC(CN2CCN(Cc3ccccc3)CC2)CC1` (stereo not drawn): the survival is inactive: 87%.

`CN(CC(=O)NCc1ccccc1Cl)S(=O)(=O)c1ccc2c(c1)c(=O)n(C)c(=O)n2C`: the survival was inactive: 130%.

With `Cc1sc2ncn(CC(=O)N3CCN(c4ccccc4F)CC3)c(=O)c2c1S(=O)(=O)N1CCN(c2ncccn2)CC1`, the survival was inactive: 66%.

Take `Cc1ccc(Cl)cc1N1CCN(C(=O)Cc2c(C(=O)O)c(C)cn2C)CC1`: the survival was inactive: 81%.

As to `O=c1c(-c2cc(-c3ccc(Cl)cc3)nc3c2COc2ccccc2-3)coc2ccccc12`, the survival was inactive: 84%.

For `CCC(=O)N1CCc2cc(Br)cc(S(=O)(=O)CCC(=O)NCCc3ccc(C)cc3)c21`, the survival is inactive: 124%.

For the compound `CC(C)CC(NC(N)=O)C(=O)O` (stereo not drawn), the survival was inactive: 87%.

As to `COc1ccccc1NC(=O)c1nnn(-c2ccc(F)cc2)c1C`, the survival was inactive: 78%.

As for `Cc1cc(F)ccc1NC(=O)C(C(C)C)N1Cc2ccccc2C1=O` (stereo not drawn), the survival was inactive: 109%.

For the compound `CN(C)CCCNc1ncnc2ccc(Br)cc12`, the survival was inactive: 64%.

Turning to `COc1ccc(CNC(=O)c2ccc3c(c2)N(Cc2ccccc2)C(=O)c2ccccc2S3=O)cc1` (stereo not drawn), the survival is inactive: 87%.

For the compound `CCc1ccccc1OCCSc1nc(-c2cccs2)nc2cc(=O)[nH]n12`, the survival was inactive: 94%.

`CC(=O)Nc1ccc(S(=O)(=O)NC2=NCN(C(C)C)CN2)cc1`: the survival is inactive: 125%.

In the case of `COc1ccc(C(=O)N2CC(=O)Nc3ccc(C)cc3C2c2ccc(F)cc2)c(OC)c1` (stereo not drawn), the survival was inactive: 168%.

As for `COc1ccc(CNc2nc(-c3ccco3)nn2S(=O)(=O)c2ccc3ccccc3c2)cc1OC`, the survival was active: 58%.

Take `Cc1ccc(C)c(NC(=O)Cn2c(=O)n(Cc3nc(C)no3)c(=O)c3cc4c(cc32)OCO4)c1`: the survival was inactive: 83%.

Take `CCc1ccc(NC(=O)Cn2c(=O)n(Cc3ccc4c(c3)OCO4)c(=O)c3oc4ccccc4c32)cc1`: the survival was inactive: 83%.

In the case of `CCc1c(C)nc2cc(-c3cc(OC)cc(OC)c3)nn2c1NCCO`, the survival is inactive: 95%.

For the compound `Cc1ccc(S(=O)(=O)n2nc(-c3ccccc3)nc2NCc2ccccc2Cl)cc1`, the survival is inactive: 85%.

Take `Cc1cccc(N2C(=O)C(CC(=O)Nc3ccc(F)cc3)N(C3CCCC3)C2=O)c1` (stereo not drawn): the survival was inactive: 130%.

On to `Cc1ccc(-c2cc(C(=O)N3CCN(S(=O)(=O)c4ccc(Br)s4)CC3)[nH]n2)cc1C`, for which the survival was inactive: 83%.

Turning to `Cc1oc2ccc(O)c(CN3CCN(C)CC3)c2c1C(=O)Nc1ccc(C(C)C)cc1`, the survival was inactive: 95%.

For `Cc1cc2c(cc1C)CN(c1cccc(C(=O)N/N=C/c3ccco3)c1)C2`, the survival was inactive: 85%.

As to `COc1ccc(CNC(=O)C(OC(C)=O)c2ccccn2)cc1` (stereo not drawn), the survival was inactive: 87%.

As for `Cc1cc(C)c(C#N)c(NC2CCCCC2)n1`, the survival is inactive: 87%.

For `CC(C)c1ccc(NC(=O)CSC2=Nc3ccccc3C3=NC(CCC(=O)NCc4ccc(F)cc4)C(=O)N23)cc1` (stereo not drawn), the survival is inactive: 92%.

Turning to `COc1ccc(-c2nc(C)c(CCNC(=O)c3ccco3)s2)cc1`, the survival was inactive: 71%.

With `CCC(C)Sc1nc2c([nH]c3ccccc32)c(=O)n1C` (stereo not drawn), the survival is inactive: 85%.

On to `CCN1CCN(C(=O)c2ccc3c(c2)N(Cc2c(F)cccc2Cl)C(=O)c2ccccc2S3)CC1`, for which the survival was inactive: 86%.

On to `Cc1ccccc1COC(=O)c1ccc(-c2nnn(Cc3ccccc3F)n2)cc1`, for which the survival was inactive: 54%.

In the case of `O=c1c(-c2cc(-c3ccc(F)cc3)nc3c2COc2ccc(Cl)cc2-3)coc2ccc(F)cc12`, the survival is inactive: 88%.

Take `Cc1ccc(-c2noc(CN(C3CCCCC3)S(=O)(=O)c3ccc(F)cc3)n2)cc1`: the survival was inactive: 78%.

Consider `CC(=O)Nc1ccc(NC(=O)CSc2cn(CC(=O)N(C(C)C)C(C)C)c3ccccc23)cc1`, for which the survival is inactive: 72%.

As to `Cc1cc2oc(C(=O)NCCc3ccc(S(N)(=O)=O)cc3)cc(=O)c2cc1C`, the survival was inactive: 55%.

`CCC(=O)N1CCc2cc(S(=O)(=O)NC(Cc3ccccc3)C(=O)NCc3ccc(C)cc3)ccc21` (stereo not drawn): the survival is inactive: 78%.

With `COc1ccc(OCCn2cc(C(=O)c3ccco3)c3ccccc32)cc1`, the survival is inactive: 56%.

On to `CCOc1ccccc1CN1C(=O)c2ccccc2C1C(=O)NC1CCCCCC1` (stereo not drawn), for which the survival is inactive: 66%.

Regarding `COC(=O)c1cc2occc2n1Cc1nc(-c2ccccc2C)oc1C`, the survival is inactive: 87%.

For the compound `CCc1nnc(NC(=O)CSc2nc3c([nH]c4ccccc43)c(=O)n2-c2ccc(C)cc2)s1`, the survival is inactive: 122%.

For the compound `CCc1nc2ccc(C(=O)N3CCN(c4cccc(OC)c4)CC3)cc2nc1CC`, the survival is inactive: 83%.

As for `Cc1ccc(C)c(-c2ccc(=O)n(Cc3ccc(F)cc3Cl)n2)c1`, the survival was active: 32%.

As to `O=C(COc1ccccc1)Nc1sc2c(c1C(=O)Nc1ccccc1)CCCCC2`, the survival was inactive: 85%.

As for `CCOC(=O)C1CCCN(C(=O)Cn2ncc3c4ccccc4n(Cc4ccc(F)cc4)c3c2=O)C1` (stereo not drawn), the survival is inactive: 107%.

On to `O=C(CCCCCn1c(=O)[nH]c2ccccc2c1=O)N1CCN(c2ccc(Cl)cc2)CC1`, for which the survival is inactive: 87%.

`COC(=O)c1ccc(CNC(=O)c2nc(Cn3nc(C)c(Br)c3C)no2)cc1`: the survival is inactive: 59%.

Consider `CC(C)C1Oc2ccccc2N(CC(=O)N(Cc2ccccn2)C2CC2)C1=O` (stereo not drawn), for which the survival was inactive: 93%.

`O=C1c2ccccc2N(Cc2ccc(Cl)cc2)C2=NCCN12`: the survival was inactive: 80%.

`O=C(CSc1nc2c([nH]c3ccccc32)c(=O)n1-c1cccc(Cl)c1)NCc1ccccc1`: the survival was inactive: 93%.

In the case of `CC(C)N(C(=O)CNCc1cccs1)C(C)C`, the survival is inactive: 92%.

Take `CCc1ccc(NC(=O)C2CCCN(S(=O)(=O)c3cccc4cccnc34)C2)cc1` (stereo not drawn): the survival is active: 58%.

For the compound `O=S(=O)(NCC(c1ccco1)N1CCOCC1)c1ccc(Cl)cc1` (stereo not drawn), the survival is inactive: 86%.

Take `CCOC(=O)c1ccc(NC(=O)CCn2c(=O)oc3ccccc32)cc1`: the survival was inactive: 112%.

For `CCOC(=O)CNC(=O)CC(c1cc(OC)c(OC)c(OC)c1)N1Cc2ccccc2C1=O` (stereo not drawn), the survival is active: 47%.

In the case of `CCN(CC)c1ccc(C(=O)Nc2ccc3nc(N(CC)CC)cc(C)c3c2)cc1`, the survival is inactive: 52%.

For the compound `Cc1ccc2[nH]c(CSc3nnc(NC(=O)COc4ccccc4Cl)s3)cc(=O)c2c1`, the survival is inactive: 75%.

For `CN(Cc1ccccc1)C(=O)Cn1c(=O)c2cccn2c2ccc(F)cc21`, the survival is inactive: 73%.

In the case of `O=c1[nH]c(C2CCCN(S(=O)(=O)c3ccccc3Cl)C2)nc2c1nnn2Cc1ccc(OC(F)(F)F)cc1` (stereo not drawn), the survival was inactive: 63%.

On to `COc1ccc(CNC(=O)CCCc2nnc3n(CCC(C)C)c(=O)c4sccc4n23)cc1`, for which the survival is inactive: 93%.

`Cn1cc(C(=O)NCCc2ccc(Cl)cc2)c(=O)c2cc(S(=O)(=O)N3CCOCC3)ccc21`: the survival was inactive: 85%.

With `Cc1ccc(CCNC(=O)C2CC(=O)N(CCc3ccccc3)C2)cc1` (stereo not drawn), the survival was inactive: 85%.

Regarding `COc1ccc(S(=O)(=O)N(CC(=O)O)c2cc(Cl)ccc2OC)cc1OC`, the survival was inactive: 59%.

In the case of `COc1ccc(CCNC(=O)c2ccc3c(c2)c(C)c(C)n3Cc2ccccc2)c(OC)c1OC`, the survival is inactive: 81%.
